Experimental data taken from the RNAGym collection of RNA variant scans (doi:10.7554/elife.90254).
The source gives no read counts; variants with many changes may rest on few reads.

B1: OR4K15 (parent)
chain: GUUAACGGUCAUAGGCCAUGGAAACUAGGAGCACCAUUUCGCUGCCAGUGAAGAAAUGAACAAAGAAAAUCUGGGCCAGGCAGGCAUCAAAAGAAAUAGUCUUGCGCUCAACCAGAAAGUCUGUAAUCAUUUUAAGGGUA

Variants of: B1
Assay: self-cleavage, relative activity (ratio to wild type); higher = more cleavage; in vitro, sequencing; the parent is a self-cleaving ribozyme

Variant	self-cleavage
GUUAACGGUCAUAGGCCAUGGAAGCUAGGAGCACCACUUCGCUGCCAGUGAAGAAAUGAACAAAGAAAAUCUGGGCCAGGCAGGCAUCAAAAGAAAUAGUCCUGCGCUCAACCAGAAGGUCUGUAAUCAUUUUAAGGGUA [A24G U37C U102C A118G]	2.03
GUUAACGGUCAUAGGCCAUGGAAGCUAGGAGCACCACUUCGCUGCCAGUGAAGAAAUGAACAAAGAAAAUCUGGGCCAGGCAGGCAUCAAAAGAAAUAGUCUUGCGCUCAACCAGAAAGUCUGUAACCAUUUCAAGGGUA [A24G U37C U127C U133C]	1.67
GUUAACGGUCAUAGGCCAUGGAAGCUAGGAGCACCAUAUCGCUGCCAGUGAAGAAAUGAACAAAGAAAAUCUGGGCCAGGCGGGCAUCAAAAGAAAUAGUCCUGCGCUCAACCAGAAAGUCUGUAAUCAUUUUAAGGGUA [A24G U38A A82G U102C]	0.51
GUUAACGGUCAUAGGCCAUGGAAGCUAGGAGCACCAUCUCGCUGCCAGUGGAGAAAUGAACAAAGAAAAUCUGGGCCAGGCAGGCAUCAAAAGAAAUAGUCUUGCGCUCAACCAGAAAGUCUGUAAUCUUUUUAUGGGUA [A24G U38C A51G A129U A135U]	0.25
GUUAACGGUCAUAGGCCAUGGAAGCUAGGAGCACCAUCUCGCUGCCAGUGAAGAAAUGAACAAAGAGAAUCUGGGCCAGGCAGGCAUCAAAAGAAAUUGUCUUGCGCUCAACCAGAAAGUCUGUGAUCAUUUUAAGGGUA [A24G U38C A67G A98U A125G]	1.05
GUUAACGGUCAUAGGCCAUGGAAGCUAGGAGCACCAUCUCGCUGCCAGUGAAGAAAUGAACAAAGAAAAUCUGGGCCAGGCAGGCGUCAAAAGAAAUAGUCUUGCGCUCAACCAGAAAGUCUGUAAUCAUUUUAAGGGUA [A24G U38C A86G]	1.36
GUUAACGGUCAUAGGCCAUGGAAGCUAGGAGCACCAUCUCGCUGCCAGUGAAGAAAUGAACAAAGAAAAUCUGGGCCAGGCAGGCAUCAGAAGUAAUAGUCUUGCGCUCAACCAGAAAGUCUGUAAUCAUUUUAAGGGUA [A24G U38C A90G A94U]	0.87
GUUAACGGUCAUAGGCCAUGGAAGCUAGGAGCACCAUCUCGCUGCCAGUGAAGAAAUGAACAAAGAAAAUCUGGGCCAGGCAGGCAUCAAAAGAGAUAGUCUUGCGCUCAACCAGAAAGUCUGUAAUCAUUUUAAGGGUA [A24G U38C A95G]	2.02
GUUAACGGUCAUAGGCCAUGGAAGCUAGGAGCACCAUCUCGCUGCCAGUGAAGAAAUGAACAAAGAAAAUCUGGGCCAGGCAGGCAUCAAAAGAAAUAGUCUUGGGCUCAACCAGAAAGUCUGUAGUCACUUUAAGGGUA [A24G U38C C105G A126G U130C]	0
GUUAACGGUCAUAGGCCAUGGAAGCUAGGAGCACCAUUCCGCUGCCAGUGUAGAAAUGAACAAAGAAAAUCUGGGCCAGGCAGGCAUCAAAAGAAAUAGUCUUGCGCUCAACCAGAAAGUCCGUAAUCAUUUUAAGGGUA [A24G U39C A51U U122C]	0.73
GUUAACGGUCAUAGGCCAUGGAAGCUAGGAGCACCAUUCCGCCGCCAGUGAAGAAAUGAACAAAGAAAAUCUGGGCCAGGCAGGCAUCAAAAGAAAUAGUCUUGCGCUCAACCAGAAAGUCUGUAAUCAUCUUAAGGGUA [A24G U39C U43C U131C]	1.32
GUUAACGGUCAUAGGCCAUGGAAGCUAGGAGCACCAUUUCGCAGCCAGUGAAGAAAUGAACAAGGAAAAUCUGGGCCAGGCAGGCAUCAAAAGAAAUAGUCUUGCGCUCAACCAGAAAGUCUGUAAUCAUUUUAAGGGUA [A24G U43A A64G]	1.37
GUUAACGGUCAUAGGCCAUGGAAGCUAGGAGCACCAUUUCGCAGCCAGUGAAGAAAUGAACAAAGAAAAUCUGGGCCAGGCAGGCAUCAAAAGAGAUAGUCUUGCGCUCAACCAGAAAGUCUGUAAUCAUUUUAAGGGUA [A24G U43A A95G]	1.55
GUUAACGGUCAUAGGCCAUGGAAGCUAGGAGCACCAUUUCGCCGCCAGUGAAGAAAUGAGCAAAGAAAAUCUGGGCCAGGCAGGCAUCAAAAGAAAUAGUCUUGCGCUCAACCAGAAAGUCUGUAAUAAUUUUAAGGGUA [A24G U43C A60G C128A]	0.45
GUUAACGGUCAUAGGCCAUGGAAGCUAGGAGCACCAUUUCGCCGCCAGUGAAGAAAUGAACAAAGAAAAUCUGGGCCAGGCGGGCAUCAAAGGAAAUAGUCUUGCGCUCAACCAGAAAGUCUGUAAUCAUUUUAAGGGUA [A24G U43C A82G A92G]	0.33
GUUAACGGUCAUAGGCCAUGGAAGCUAGGAGCACCAUUUCGCCGCCAGUGAAGAAAUGAACAAAGAAAAUCUGGGCCAGGCUGGCAUCAAAAGAAAUAGUCUUGCGCUCAACCAGAAAGUCUGUAAUCAUUUUAAGGGUA [A24G U43C A82U]	0.18
GUUAACGGUCAUAGGCCAUGGAAGCUAGGAGCACCAUUUCGCCGCCAGUGAAGAAAUGAACAAAGAAAAUCUGGGCCAGGCAGGCAUCGAAAGAAAUAGUCUUGCGCUCAACCAGAAAGUCUGUAAUCAUUUUAAGGGUA [A24G U43C A89G]	1.6
GUUAACGGUCAUAGGCCAUGGAAGCUAGGAGCACCAUUUCGCCGCCAGUGAAGAAAUGAACAAAGAAAAUCAGGGCCAUGCAGGCAUCAAAAGAAAUAGUCUUGCGCUCAACCAGAAAGUCUGUAAUCAUUUUAAGGGUA [A24G U43C U72A G79U]	0.18
GUUAACGGUCAUAGGCCAUGGAAGCUAGGAGCACCAUUUCGCGGCCAGUGAAGAAAUGAACAAAGAAAGUCUGGGCCAGGCAGGCAUCAAGAGAAAUAGUCUUGCGCUCAACCAGAAAGUCUGUAAUCAUCUUAAGGGUA [A24G U43G A69G A91G U131C]	1.36
GUUAACGGUCAUAGGCCAUGGAAGCUAGGAGCACCAUUUCGCUGCCAGAGAAGAAAUGAACAAAGAAAGUCUGGGCCAGGCAGGCAUCAAAAGUAAUAGUCUUGCGCUCAACCAGAAAGUCUGUAAUCAUUUUAAGGGUA [A24G U49A A69G A94U]	0.96
GUUAACGGUCAUAGGCCAUGGAAGCUAGGAGCACCAUUUCGCUGCCAGAGAAGAAAUGAACAAAGAAAAUCUGGGCCAGGCGGGCAUCAAAAGAAAUAGUCUUGCGCUCAACCAGAAAGUCUGUAAUCAUUUUAAGGGUA [A24G U49A A82G]	0.58
